# Laboratory results reported in PubChem BioAssay AID504339 (National Center for Advancing Translational Sciences (NCATS), 2011).
# In all, about 390,000 compounds went through this assay and about 17,000 (4.4%) were called active. Inconclusive results, whose numbers are uncertain, are shown with a selection of clear calls. Calls follow the shape of the dose curve; as a rule, active = well fitted inhibition curve with a large enough effect; inconclusive = small, poorly fitted or top-dose-only effect; inactive = no such curve, though single readings can be large or run the other way. Potencies of inconclusive entries are doubtful fits and often do not repeat.
# Target: Lysine-specific demethylase 4A (Homo sapiens) (UniProt O75164)
# Test: qHTS Assay for Inhibitors of JMJD2A-Tudor Domain; also: nearly all actives have a fitted effect of over 50% in size
# Conditions: AlphaScreen JMJD2A-Tudor / H3K4me3 peptide binding; activity change, negative = inhibition: at 114 µM (top of the series)
# Source text: JMJD2A is a jumonji-domain-containing lysine demethylase that uses Fe(II) together with 2-OG to effect oxidative demethylation of histones. Methylation is one of many […] modification that affect epigenetic transcription. […] It is proposed that the functions of JmjD2A binding to the histones, is to maintain marks after they are installed and to spread the modifications by […], establishing a self-propagating cycle for rapid methylation over a large area of chromatin. […] Thus, small molecule targeting of the JMJD2A-tudor domain interaction with its target methylhistone mark is expected to enable sophisticated experiments probing the fine regulatory pathways leading to selective demethylation of a given methyllysine locus based on the methylation state of adjacent histone marks. A quantitative high throughput AlphaScreen has been developed to identify small molecule inhibitors based on a protocol published by NCGC and SGC [4].
# Although AlphaScreen has significant advantages with its utility in a variety of epigenetic target assays, the primary screening data provided in this deposition should be used with caution due to the prevalence of screening artifacts. The top compound concentration tested was high (>100uM) in this assay, which increases number of actives and potential artifacts. An AlphaScreen counterscreen is highly recommended to be run against any putative actives to eliminate non-specific artifacts. Alternatively, one can use other AlphaScreen assays in PubChem to filter out promiscuous hits.
# [1] Lee, J. et al. Distinct binding modes specify the recognition of methylated histone H3K4 and H4K20 by JMJD2A-tudor. Nat Struct Mol Biol. 15(1); 109-11. 2008. PMID: 18084306
# [2] Yasgar, et al. Compound Management for Quantitative High-Throughput Screening. JALA. 2008 Apr;13(2):79-89. PMID: 18496600
# [3] Inglese, et al. Quantitative high-throughput screening: a titration-based approach that efficiently identifies biological activities in large chemical libraries. Proc Natl Acad Sci. 1;103(31):11473-8. 2006. PMID: 16864780
# [4] Quinn et al. A homogeneous method for investigation of methyl-dependent protein-protein interactions in epigenetics. Nucleic Acids Res., 38(2):e11. 2010. PMID: […]
# [5] Baell,Holloway. New substructure filters for removal of pan assay interference compounds (PAINS) from screening libraries and for their exclusion in bioassays. J Med Chem. 53(7):2719-40. 2010. PMID: 20131845
# NIH Molecular Libraries Probe Production Network [MLPCN]
# NIH Chemical Genomics Center [NCGC]
# Structural Genomics Consortium (SGC)
# To each well of a 1,536w plate, 2ul of JMJD2A-Tudor (final 100nM) and 1ul biotinylated histone peptide methylated at Lys4 [b-H3(1-18)K4me3] (final 50nM) were added in 1x PBS buffer, pH 7.4, containing 0.01% Tween-20, using a nanoliter dispenser. Formation of a protein-peptide complex proceeded at room temperature for 30 min. A Kalypsys pin-tool transferred 23nl of library compound solution in DMSO to each well. Following a 30 min incubation of the protein-peptide complex with compounds at room temperature, a mixture of 40 µg/mL each streptavidin-coated donor and nickel chelate acceptor AlphaScreen beads (final 10 µg/mL) was added in a 1ul dispense for a final volume of 4ul, followed by a brief centrifugation (1000 rpm, 1 min). Plates were incubated protected from the light for 20 min at room temperature. Microplates were then read on an EnVision multilabel plate reader using the 1,536 plate HTS AlphaScreen aperture (excitation time 80 ms, measurement time 240 ms).
# % is scaled to controls: 0 for no effect and ±100 for the full control effect; potency is read from the fitted curve at half-maximal effect; tags tell the direction and shape of the fitted curve.
# Sequence of UniProt O75164 (O75164 whole entry, looked up, the tested form may be a part): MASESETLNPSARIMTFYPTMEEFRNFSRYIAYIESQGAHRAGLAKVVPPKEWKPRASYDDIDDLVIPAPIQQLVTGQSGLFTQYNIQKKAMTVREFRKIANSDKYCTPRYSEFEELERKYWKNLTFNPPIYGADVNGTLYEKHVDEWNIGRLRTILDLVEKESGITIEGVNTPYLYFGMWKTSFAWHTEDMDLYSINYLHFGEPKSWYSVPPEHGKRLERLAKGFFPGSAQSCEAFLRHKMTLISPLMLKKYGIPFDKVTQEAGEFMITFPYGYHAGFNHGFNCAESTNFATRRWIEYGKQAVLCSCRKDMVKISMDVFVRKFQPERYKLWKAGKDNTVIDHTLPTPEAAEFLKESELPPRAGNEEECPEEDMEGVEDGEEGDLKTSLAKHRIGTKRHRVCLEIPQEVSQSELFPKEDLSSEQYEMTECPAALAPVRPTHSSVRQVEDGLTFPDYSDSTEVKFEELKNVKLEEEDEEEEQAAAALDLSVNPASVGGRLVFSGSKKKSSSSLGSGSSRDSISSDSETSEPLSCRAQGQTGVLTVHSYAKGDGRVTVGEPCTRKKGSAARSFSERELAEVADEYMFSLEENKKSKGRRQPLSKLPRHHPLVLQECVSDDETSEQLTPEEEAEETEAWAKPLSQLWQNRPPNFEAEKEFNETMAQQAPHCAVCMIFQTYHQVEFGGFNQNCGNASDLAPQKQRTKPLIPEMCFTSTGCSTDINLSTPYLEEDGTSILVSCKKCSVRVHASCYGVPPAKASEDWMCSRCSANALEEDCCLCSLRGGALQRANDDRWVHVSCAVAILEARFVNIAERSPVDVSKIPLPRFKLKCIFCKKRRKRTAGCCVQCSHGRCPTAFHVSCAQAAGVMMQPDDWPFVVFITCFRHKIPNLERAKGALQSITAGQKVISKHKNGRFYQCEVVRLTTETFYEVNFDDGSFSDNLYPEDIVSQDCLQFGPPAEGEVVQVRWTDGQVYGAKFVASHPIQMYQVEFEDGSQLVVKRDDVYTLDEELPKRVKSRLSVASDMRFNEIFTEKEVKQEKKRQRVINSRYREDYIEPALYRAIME
Compound,Potency,"activity change, negative = inhibition"
COc1cc(C(c2c(C)[nH]n(-c3ccccc3)c2=O)c2c(C)[nH]n(-c3ccccc3)c2=O)cc(OC)c1OC,"inconclusive: 56.2 µM [inhibitor, partial curve]",
C[C@H]1OC[C@@H](C[N+](C)(C)C)O1,"inconclusive: 28.2 µM [inhibitor, full curve]",
O=C1NC(=O)N(Cc2ccccc2)C(=O)/C1=C\C=C\c1ccco1,,inconclusive: -47.5% [inhibitor]
COc1ccc2[nH]c(C)c(CCNCc3cccnc3)c2c1,active: 7.08 µM,
Cc1ccc(N2CCN(CCc3ccccc3)CC2)cc1,"inconclusive: 63.1 µM [inhibitor, partial curve]",
CCOc1c(Cl)cc(CNCCc2c[nH]c3ccccc23)cc1OC,"inconclusive: 50.1 µM [inhibitor, partial curve, poor fit]",
CN(C)c1ccc(C(=O)c2ccc(N(C)C)cc2)cc1,"inconclusive: 56.2 µM [inhibitor, partial curve]",
CCCCn1c(O)c(C(CC)=Nc2cccc(C(=O)O)c2)c(=O)[nH]c1=O,"inconclusive: 89.1 µM [inhibitor, single point]",
Cn1cc(C=C2C(=O)NC(=O)NC2=O)c2ccccc21,"inconclusive: 50.1 µM [inhibitor, partial curve]",
CCC1(O)C(=O)OCc2c1cc1n(c2=O)Cc2cc3cc(O)ccc3nc2-1 (stereo not given),"inconclusive: 79.4 µM [inhibitor, partial curve]",
CCOC(=O)Cn1cc(C(=O)c2ccccc2F)c2ccccc21,"inconclusive: 39.8 µM [inhibitor, single point]",
COCCCn1c(-c2ccc(OC)cc2)cc(C(=O)NC2CCCCCCC2)c1C,"inconclusive: 44.7 µM [inhibitor, partial curve]",
CN(Cc1ccccc1)C(=O)c1ccc(NC(=O)C2CCN(C(=O)OC(C)(C)C)CC2)cc1,"inconclusive: 28.2 µM [inhibitor, full curve, poor fit]",
CCC(=O)OC1(c2ccccc2)CCN(C)CC1C (stereo not given),"inconclusive: 20 µM [inhibitor, single point]",
C[N+]1(C)C2CCC1CC(OC(=O)c1c[nH]c3ccccc13)C2 (stereo not given),active: 50.1 µM,
Cc1cccc(-n2c(O)c(/C=N/NC(=O)c3ccncc3)c(=O)[nH]c2=O)c1,active: 79.4 µM,
C/C(CC(c1ccccc1)c1c(O)c2ccccc2oc1=O)=N\NC(N)=S (stereo not given),active: 1.26 µM,
COc1ccc(CN2CCN(c3ccccc3)CC2)c(C)c1C,active: 3.98 µM,

Compound,Potency,"activity change, negative = inhibition"
COC1CC(C)C(OC)c2cc(O)cc(c2O)NC(=O)C(C)=CC=CC(C)C(OC(N)=O)C(C)=CC(C)C1OC (stereo not given),active: 89.1 µM,
COc1ccc(N2C(=O)NC(=O)/C(=C\c3ccc([N+](=O)[O-])s3)C2=O)cc1,active: 22.4 µM,
C=CCSC1=N/C(=C\c2cc(OC)c3c(c2)OCO3)C(=O)S1,"inconclusive: 79.4 µM [inhibitor, single point]",
O=[N+]([O-])c1cccc(C2N3CCCN23)c1 (stereo not given),,inactive: 0%
COc1ccc(OC)c(NP(=O)(Oc2ccccc2)Oc2ccccc2)c1,"inconclusive: 79.4 µM [inhibitor, partial curve]",
Cc1ccc(-n2c(-c3nn(C)c(C)c3Cl)n[nH]c2=S)cc1,"inconclusive: 5.01 µM [inhibitor, single point]",
CCCC[N+]12CCC(CC1)C(=C(c1ccccc1)c1ccccc1)C2,"inconclusive: 70.8 µM [inhibitor, single point]",
O=C(c1ccccc1)c1ccc(N=Nc2c(O)[nH]c(=O)[nH]c2=O)cc1,"inconclusive: 89.1 µM [inhibitor, partial curve]",
COc1cc(N2C(=O)CC(=O)NC2=O)cc(OC)c1OC,,inactive: -11%
O=c1c2ccccc2nc(-c2ccc(Cl)cc2Cl)n1-c1ccncc1,,inactive: -3.7%
CCc1ccc(-n2c(O)c(/C=N/NC(=O)c3ccncc3)c(=O)[nH]c2=O)cc1,"inconclusive: 31.6 µM [inhibitor, single point]",
CNS(=O)(=O)c1ccc(N=Cc2c(O)n(-c3cccc(C)c3)c(=O)[nH]c2=O)cc1,,inactive: -20.3%
COC(=O)C1=C(c2ccc(-c3ccccc3)c(F)c2)C[C@@H]2CC[C@H]1N2C(=O)N1CCC(O)CC1,"inconclusive: 89.1 µM [inhibitor, partial curve]",
COCCNCCOc1ccc(C(C)(C)c2ccccc2)cc1,active: 31.6 µM,
CCCOP(=O)(c1ccc(N(C)C)cc1)C(O)c1ccc(Cl)cc1Cl (stereo not given),"inconclusive: 8.91 µM [inhibitor, partial curve]",
COc1ccccc1N1C(=O)NC(=O)/C(=C\c2cnn(-c3ccccc3)c2)C1=O,"inconclusive: 89.1 µM [inhibitor, single point]",
Cc1ccc(N2C(=O)NC(=O)/C(=C/c3cnc(-c4ccccc4)nc3)C2=O)cc1C,active: 79.4 µM,
